PubChem BioAssay AID1963576 (National Center for Advancing Translational Sciences (NCATS), 2024)
The whole screen tested about 46,000 compounds, of which about 60 (0.1%) were called active. Not shown: some 3% with an inconclusive outcome. The call rests on the fitted dose curve; in most records, active means well fitted inhibition curve with a large enough effect; inconclusive means small, poorly fitted or top-dose-only effect; inactive means no such curve, though single readings can be large or run the other way. The list shows a part of the results.

Assay: Primary qHTS assay for Inhibitors of ovarian cancer metastasis using an organotypic tumor microenvironment (TME) model. Further: nearly all actives have a fitted effect of over 65% in size.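 On activity change, negative = inhibition: plate controls were DMSO wells for no effect and tomatine positive control wells for full effect.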
Settings: SKOV3ip1-GFP adhesion/invasion on 3D omental model, fluorescence; series mostly up to 45.8 µM; activity change, negative = inhibition: at the top concentration
How it was run: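 Primary human omental fibroblast/mesothelial 3D culture pre-formed 48 h. SKOV3ip1-GFP cells added with compounds (0.36-46 umol/L), incubated 2 h RT/16 h 37 C, fixed; GFP cells quantified at 488/509 nm.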

Activity change, negative = inhibition, inactive:
CCN(CC)c1ccc(NC(=O)CCS(=O)(=O)c2cc3c(cc2Cl)NC(=O)CO3)c(C)c1 9.17%, CCc1cccc(C)c1NS(=O)(=O)c1cc2[nH]c(=O)c(=O)[nH]c2cc1C 10.8%, CCOC(=O)c1sc(NC(=O)/C=C/c2ccc(C(C)C)cc2)c(C(=O)OCC)c1C -2.04%, Cc1ccc(C)c(NC(=O)CC2NCCNC2=O)c1 (stereo unspecified) 15.4%, COc1ccc(N(C(=O)c2ccc(OC)c(OC)c2)S(=O)(=O)c2ccc(Cl)cc2)cc1 0.314%, COc1cccc(NC(=O)CSc2nnc3scc(-c4ccc(Cl)cc4)n23)c1 2.14%, Cc1cc(NS(=O)(=O)c2ccc(NC(=O)c3ccccc3C)cc2)nc(C)n1 2.12%, CCc1ccc(NCc2cc3cc4c(cc3n(CC(=O)Nc3cccc(OC)c3)c2=O)OCO4)cc1 7.42%, COCCNC(=O)Cn1nc(C)c2c(C)n(-c3ccc(C)cc3)nc2c1=O -5.64%, CCc1nnc(SCC(=O)Nc2ccccc2Cl)nc1CC -7.87%, Cc1csc2nc(COC(=O)c3cccc(NC(=O)COc4ccc(Cl)cc4)c3)cc(=O)n12 -1.01%, CCCC(C(=O)NCc1cccc(Cl)c1)N1Cc2ccccc2C1=O (stereo unspecified) 14.9%, Cc1ccn2c(=O)cc(COc3ccc(NC(=O)COc4ccc(Cl)cc4)cc3)nc2c1 9.65%, N#Cc1ccccc1Cn1c(=O)n(CCCC(=O)NCc2ccc3c(c2)OCO3)c(=O)c2sccc21 -10.8%, O=C(Nc1cccc(C(=O)OCc2cc(=O)n3nc(C4CC4)sc3n2)c1)c1cccc(F)c1 2.61%, COc1cc2c(cc1OC)C(c1ccc(F)cc1)N(c1cccc(C#N)c1)C(=O)C2 (stereo unspecified) 3.76%, Cc1ccc(CCNC(=O)C(NS(=O)(=O)c2ccc3c(c2)oc(=O)n3C)C(C)C)cc1 (stereo unspecified) -7.35%, CCOC(=O)CSc1ccc2nnc(CCNS(=O)(=O)c3ccccc3)n2n1 -4.07%, Cc1ccc(N(CC(=O)N2CCN(c3ccccc3F)CC2)S(=O)(=O)c2c(C)noc2C)cc1 7.31%, Cc1ccc(N(CC(=O)Nc2cccc(F)c2)S(=O)(=O)c2cccs2)cc1 -3.82%, COc1ccc(NC(=O)CSc2nncn3c2cc2oc(C)cc23)cc1OC -4.99%, Cn1c(=O)c(=O)n(C)c2cc(S(=O)(=O)N3CCCC3C(=O)Nc3ccccc3F)ccc21 (stereo unspecified) 3.67%, COc1cc2c(cc1OC)C(COc1ccc3c(C)cc(=O)oc3c1)N(C(=O)c1cccc(C)c1)CC2 (stereo unspecified) 4.37%, COc1ccc(Cn2ccn(Cc3cccc(C)c3)c(=O)c2=O)cc1 -0.907%, CCOc1ccc(-n2c(SCC(=O)NCC3CCCO3)nc3c([nH]c4ccccc43)c2=O)cc1 (stereo unspecified) -19.1%, COCCCNC(=O)CCC(=O)N1Cc2cccc(OC)c2Oc2ncccc21 -2.12%, CC(=O)N1CCCc2cc(S(=O)(=O)N3CCC(C(=O)NC4CCC(C)CC4)CC3)ccc21 (stereo unspecified) 7.81%, CC1(C(=O)Nc2cccc(Br)c2)Cc2ccccc2C(=O)O1 (stereo unspecified) -0.836%, CCc1ccc(NC(=O)CSc2nccn2-c2ccc(OC)cc2)cc1 -4.9%, CNC(=O)C1CCC(Cn2c(=O)c3sccc3n(Cc3ccc(F)cc3)c2=O)CC1 (stereo unspecified) 3.65%, CCn1c(C(=O)NCc2ccccc2C)cc2oc3ccccc3c21 -7%, COc1cc(C(=O)N2CCN(c3ccc(Nc4ccc(C)cc4)nn3)CC2)cc(OC)c1OC -19.6%, COC(=O)Cn1nc(C)c2c(C)n(-c3ccccc3)nc2c1=O -0.992%, CCCN1C(=O)c2[nH]nc(-c3ccccc3O)c2C1c1ccc(OCc2ccccc2)c(OC)c1 (stereo unspecified) 8.51%, CN1CCc2c(n(Cc3ccc(C(=O)NO)cc3)c3ccccc23)C1 -8.14%, Cc1nn(Cc2ccccc2Cl)c(C)c1NC(=O)c1cc(C(C)C)on1 -0.939%, CCC1CCCCN1C(=O)Cn1c(=O)oc2cc(S(=O)(=O)N3CCCCC3)ccc21 (stereo unspecified) 0.842%, O=C(NCCc1ccccc1)c1sc2ncccc2c1-n1cccc1 -0.475%, CCCc1cnc2c(c1SCC(=O)N1CCC(C)CC1)c(=O)n(C)c(=O)n2C 11%, CCOC(=O)c1ccc(NC(=O)Cn2c(=O)cc(C)c3c(C)nn(-c4cccc(F)c4)c32)cc1 -5.9%, Cc1ccc(NC(=O)c2cc3cc(C)ccc3n2C)cc1 2.17%, NC(=O)CSc1oc(-c2ccco2)nc1S(=O)(=O)c1ccc(Cl)cc1 -8.24%, O=C(Nc1nc2n(n1)C(c1ccc(F)cc1)C=C(c1ccccc1)N2)c1ccc(Cl)cc1 (stereo unspecified) 4.06%, Cc1ccc(NC(=O)C(Cc2ccccc2)NS(=O)(=O)c2ccc3c(c2)oc(=O)n3C)cc1F (stereo unspecified) -4.7%, O=C(CSc1nncn2c1cc1sccc12)Nc1ccc(Br)cc1F -12.7%, CCOC(=O)c1c(C)oc2nc(C)nc(NCc3ccc(OC)cc3OC)c12 -2.66%, CCc1ccccc1NC(=O)c1sc2nc3c(cc2c1N)CN(Cc1ccccc1)CC3 -16.4%, O=C(Nc1cc(C(F)(F)F)ccc1Cl)c1nc2ccccc2nc1N1CCCCC1 -1.94%, CCCCNC(=O)C1CCC(Cn2c(=O)c3sccc3n(CC(=O)N3CCCC3)c2=O)CC1 (stereo unspecified) -6.66%, Clc1cccc(-n2ncc3c(N4CCC(Cc5ccccc5)CC4)ncnc32)c1 3.29%, CCc1ccc(NC(=O)CCn2nc(C)c(S(=O)(=O)N3CCCCC3)c2C)cc1 -6.9%, O=C(Cn1c(=O)nc(-c2ccccc2)c2ccccc21)NCc1ccc(Cl)cc1 0.358%, COc1cc(C2C(C(=O)Nc3ccccc3C)=C(C)Nc3ncnn32)ccc1OCC(N)=O (stereo unspecified) -6.33%, O=C(NCC(c1ccc2c(c1)OCO2)N1CCOCC1)c1cccc(Cl)c1 (stereo unspecified) -2.66%, CCOC(=O)c1ccccc1NC(=O)Cn1c(=O)n(-c2cccc(C)c2)c(=O)c2c1c1cc(C)ccc1n2C -15.2%, COc1ccc2c(C)cc(SCC(=O)Nc3nsc(-c4ccccc4C)n3)nc2c1 -9.52%, COc1cccc(N2CCN(S(=O)(=O)c3ccc(-n4cnnn4)cc3)CC2)c1 1.12%, CCOc1ccccc1NC(=O)C1CCN(S(=O)(=O)c2ccc3c(c2)CC(C)N3C(C)=O)CC1 (stereo unspecified) 2.39%, O=C(NCc1ccc(Cl)cc1)C(=O)NCC(c1cccs1)S(=O)(=O)c1cccs1 (stereo unspecified) -3.76%, Nc1ccc(N2CCN(c3ncc(C(F)(F)F)cc3Cl)CC2)c(C(F)(F)F)c1 6.55%, O=C(CCn1cnnn1)Nc1ccc(F)cc1 27.8%, Cc1oc(C)c2c(=O)cc(-c3ccc4c(c3)OCO4)cc(OC(=O)c3cccc(Br)c3)c12 5.45%, COCC(=O)NCc1nc2cccnc2n1Cc1ccc(F)cc1 -1.53%, CN(c1ccccc1)S(=O)(=O)c1ccc(NC(=O)c2cc(=O)c3ccccc3o2)cc1 -1.58%, Cc1ccc(NC(=O)CSc2ccc(-c3cccs3)nn2)cc1Cl 0.391%, Cc1noc(-c2ccc(N3CCCCC3)c([N+](=O)[O-])c2)n1 -18.9%, Cc1cc(NC(=O)c2cccc(Cl)c2)ccc1-c1cc2ccccc2oc1=O 5.03%, Cc1ccc(Cn2c(CNS(=O)(=O)c3ccc(F)c(Cl)c3)nc3cccnc32)cc1 2.8%, COc1ccc(-n2ncc(C(=O)NCCc3ccsc3)c2C2CCN(C(=O)OC(C)(C)C)CC2)cc1 -28.6%, COc1cc2c(cc1OC)C(COc1ccccc1OC)N(C(=O)COc1ccc(Cl)cc1)CC2 (stereo unspecified) 11.8%, Cc1ccc(CCNC(=O)c2ccc3c(c2)nc2n3CCC(C)C2)cc1 (stereo unspecified) -3.65%, COc1ccc(OC)c(CNC(=O)Cc2ccc(NC(=O)N3CCSc4ncccc43)cc2)c1 0.161%, O=C(C1CCN(c2ncnc3c2nc2n3CCCCC2)CC1)N1CCN(c2cccc(Cl)c2)CC1 -29.8%, O=C1CS(=O)(=O)C2(C(=O)N(Cc3ccccc3)c3ccccc32)N1c1ccccc1 (stereo unspecified) 7.29%, Cc1cn[nH]c1 2.09%, Cc1ccc(CNS(=O)(=O)c2ccc3[nH]c4c(c3c2)CCCC4)cc1 -2.54%, CCCCc1nn2c(=O)cc(COC(=O)c3ccc(NC(=O)c4ccccc4C)cc3)nc2s1 2.85%, CCOC(=O)C1(C)C=C(Nc2cccc(C(=O)O)c2)C(=O)N1c1cccc(C(=O)O)c1 (stereo unspecified) -2.63%, COc1ccc(-c2noc(-c3ccc(N4CCN(c5ccccc5)CC4)c([N+](=O)[O-])c3)n2)cc1OC -5.33%, Cc1cc(C)n(CCc2nc3c4ccccc4nc(N4CCN(c5ccccc5)CC4)n3n2)n1 -8.63%

outcome, inactive:
Cc1ccc2nc(N3CCN(c4cccc(C(F)(F)F)c4)CC3)c3nnnn3c2c1, CCCc1cc(=O)[nH]c2nnc(SC(C)CC)n12 (stereo unspecified), CCc1ccc2ncc3c(-c4ccccc4)nn(-c4ccccc4)c3c2c1, O=C(CCCCn1c(=O)c2ccccc2n(Cc2ccccc2Cl)c1=O)NCCc1ccccc1, CCCN(CCC)C(=O)Cn1c(=O)n(-c2cccc(OC)c2)c(=O)c2c3c(sc21)CCCC3, Cc1ccc(NC(=O)C2CCCN(c3nnc(-n4c(C)ccc4C)s3)C2)c(C)c1 (stereo unspecified), O=C(NCCc1ccccc1)c1ccc2c(c1)N(Cc1c(F)cccc1Cl)C(=O)CS2, Cc1nc(-c2cccc(NC(=O)Nc3ccc([N+](=O)[O-])cc3)c2)no1, CCCc1cc(=O)oc2c3c(ccc12)OCN(Cc1ccc(OC)cc1)C3, Cc1ccc(C(=O)Nc2cccc(OCc3cc(=O)n4c5c(sc4n3)CCCC5)c2)cc1, COc1cccc2c1cc1c(=O)n(CC(=O)NC3CCCCC3)nc(C)n12, Cc1cc(C)cc(NC(=O)C(=O)NCC(c2cccnc2)N2CCc3ccccc3C2)c1 (stereo unspecified), CCOc1ccc(Cn2c(CNS(=O)(=O)c3ccc(Cl)s3)nc3cccnc32)cc1, COc1ccc(Nc2cc(C(=O)NCCCN3CCN(c4ccc(OC)cc4)CC3)c3ccccc3n2)cc1, Cc1cc(F)ccc1NS(=O)(=O)c1ccc(-n2cccn2)cc1, COc1cccc(CNC(=O)C2CCCCN2S(=O)(=O)c2ccc(F)cc2)c1 (stereo unspecified)
